This is one part of the list.

The chains are these.
B1: PhoQ; a variant is named by its letters at X, in order, P23837 (parent)
chain: MKKLLRLFFPLSLRVRFLLATAAVVLVLSLAYGMVALIGYSVSFDKTTFRLLRGESNLFYTLAKWENNKLHVELPENIDKQSPTMTLIYDENGQLLWAQRDVPWLMKMIQPDWLKSNGFHEIEADVNDTSLLLSGDHSIQQQLQEVREDDDDAEMTHSVAVNVYPATSRMPKLTIVVVDTIPVELKSSYMVWSWFIYVLSANLLLVIPLLWVAAWWSLRPIEALAKEVRELEEHNRELLNPATTRELTSLVRNLNRLLKSERERYDKYRTTLTDLTHSLKTPLXXLQXXLRSLRSEKMSVSDAEPVMLEQISRISQQIGYYLHRASMRGGTLLSRELHPVAPLLDNLTSALNKVYQRKGVNISLDISPEISFVGEQNDFVEVMGNVLDNACKYCLEFVEISARQTDEHLYIVVEDDGPGIPLSKREVIFDRGQRVDTLRPGQGVGLAVAREITEQYEGKIVAGESMLGGARMEVIFGRQHSAPKDE

Variants of B1 are the subject of the experiment. Briefly: enrichment ratio after two sorts for PhoP signalling (ratio (wild type AVST 3.29)); higher = more functional. To be noted: with PhoP (E. coli).
As for YDWY, the enrichment ratio is no more than 0.25. DSFD: the enrichment ratio was 0.472. The result for ANTI reads 11.4; that for GTSL, 9.63.

As for YDRT, the enrichment ratio was no more than 0.25.

Consider MMIK, for which the enrichment ratio is no more than 0.25. On to DAQY, for which the enrichment ratio was no more than 0.25.

In the case of HNGC, the enrichment ratio is no more than 0.25. For the variant MATH, the enrichment ratio is no more than 0.25. Next, NFQK: no more than 0.25; DENN: no more than 0.25; DRHR: no more than 0.25.

For the variant GPYE, the enrichment ratio was no more than 0.25.

With AYFG, the enrichment ratio is no more than 0.25.

Regarding NWFY, the enrichment ratio was no more than 0.25. Next, TTIF: no more than 0.25.

Regarding HPLF, the enrichment ratio was no more than 0.25. As for SRTN, the enrichment ratio is no more than 0.25. The result for IKIE reads no more than 0.25; that for YRKP, no more than 0.25.

Regarding NCSQ, the enrichment ratio was no more than 0.25. Next, LDSC: no more than 0.25; ATVF: 16.1. The result for EPHG reads no more than 0.25; that for HYFA, no more than 0.25. Turning to EPGP, the enrichment ratio is no more than 0.25. Next, RVAE: no more than 0.25; HTHT: no more than 0.25. Regarding SWME, the enrichment ratio was no more than 0.25. The result for SMSF reads 5.95; that for HYFL, no more than 0.25. For the variant MMLY, the enrichment ratio is no more than 0.25. In the case of PEEL, the enrichment ratio was no more than 0.25. In the case of LCQA, the enrichment ratio was no more than 0.25.

Turning to HIRG, the enrichment ratio was no more than 0.25.

Consider LAKV, for which the enrichment ratio is no more than 0.25. Next, VVLV: 0.977; IPVA: no more than 0.25; VVIK: no more than 0.25. In the case of HSRM, the enrichment ratio was no more than 0.25. The result for RTEQ reads no more than 0.25. Turning to PLPT, the enrichment ratio was no more than 0.25. For GVVY, the enrichment ratio was no more than 0.25.

Turning to QPMY, the enrichment ratio was no more than 0.25. VIAD: the enrichment ratio is no more than 0.25. The result for KYHC reads no more than 0.25; that for QPPN, no more than 0.25; that for GTLG, 6.02. Turning to PMRQ, the enrichment ratio is no more than 0.25. With HIYT, the enrichment ratio was no more than 0.25.

HGNH: the enrichment ratio was no more than 0.25. On to KHGV, for which the enrichment ratio was no more than 0.25. TRID: the enrichment ratio was no more than 0.25.

For PNQE, the enrichment ratio was no more than 0.25. Next, RYAA: no more than 0.25; VTAR: no more than 0.25; YWQK: no more than 0.25. Next, LPVP: no more than 0.25; TPIT: no more than 0.25.

Turning to AGYQ, the enrichment ratio is no more than 0.25. For RRYH, the enrichment ratio worked out at 0.448.

As to WEEY, the enrichment ratio is no more than 0.25.

Take LVAV: the enrichment ratio was no more than 0.25.

With IGPE, the enrichment ratio was no more than 0.25. With SMKD, the enrichment ratio was no more than 0.25. On to FDVP, for which the enrichment ratio was no more than 0.25. The result for DISA reads no more than 0.25; that for DNVA, no more than 0.25; that for KCPG, no more than 0.25. The result for HQTP reads no more than 0.25; that for PRCF, no more than 0.25. Turning to MKTT, the enrichment ratio is no more than 0.25. Next, DLQY: no more than 0.25; VSLK: no more than 0.25. The result for IIYG reads no more than 0.25; that for SFCR, no more than 0.25; that for QMQM, no more than 0.25. As to GLTW, the enrichment ratio was no more than 0.25. Next, YEVY: no more than 0.25; KSIP: no more than 0.25; KLCA: no more than 0.25. Next, GVAG: no more than 0.25. The result for EIIK reads no more than 0.25; that for RTPT, no more than 0.25. For the variant LKYG, the enrichment ratio was no more than 0.25. The result for PGAV reads no more than 0.25. With ASNS, the enrichment ratio is no more than 0.25. The result for YPDM reads no more than 0.25; that for HTMH, no more than 0.25. Consider KPTD, for which the enrichment ratio was no more than 0.25. With NMKR, the enrichment ratio is no more than 0.25. The result for QFLG reads no more than 0.25. The result for NTYC reads no more than 0.25; that for GTLI, 15.8; that for NMQM, no more than 0.25. Next, NIRH: no more than 0.25; IGNE: no more than 0.25; VIAI: no more than 0.25. Take KTVQ: the enrichment ratio is no more than 0.25.

With PHTP, the enrichment ratio was no more than 0.25. In the case of EPYA, the enrichment ratio was no more than 0.25. As to EVRC, the enrichment ratio was no more than 0.25. Next, QVDT: no more than 0.25; WNSI: no more than 0.25; PKLT: no more than 0.25. For the variant GDSD, the enrichment ratio is no more than 0.25. The result for LNYI reads no more than 0.25.

As for PSEG, the enrichment ratio was no more than 0.25. MFEN: the enrichment ratio was no more than 0.25. The result for YLTG reads no more than 0.25; that for CHMK, no more than 0.25.

Regarding NWKF, the enrichment ratio is no more than 0.25.

YTKM: the enrichment ratio is no more than 0.25. On to QMAW, for which the enrichment ratio was no more than 0.25. Next, RKWG: no more than 0.25; QSSG: 6.34. On to IKQC, for which the enrichment ratio was no more than 0.25. The result for YLTN reads no more than 0.25; that for LVCY, no more than 0.25; that for FHCN, no more than 0.25.

As to EKEF, the enrichment ratio was no more than 0.25. The result for YDFM reads no more than 0.25. For the variant TRQS, the enrichment ratio was no more than 0.25.

In the case of IRHM, the enrichment ratio is no more than 0.25. The result for NCTR reads no more than 0.25.

Consider TQWP, for which the enrichment ratio was no more than 0.25. The result for FVVE reads no more than 0.25. For the variant GCPP, the enrichment ratio was no more than 0.25. Take LIAM: the enrichment ratio was no more than 0.25. Next, RERC: no more than 0.25; SWYG: no more than 0.25. Next, VAMT: no more than 0.25; KFYA: no more than 0.25. The result for FDAV reads no more than 0.25; that for VNSW, no more than 0.25; that for RRSW, no more than 0.25. As for VQGD, the enrichment ratio is no more than 0.25.

With PFMH, the enrichment ratio is no more than 0.25. The result for TLIF reads no more than 0.25.

As for VTTY, the enrichment ratio was no more than 0.25. The result for ITSA reads no more than 0.25. The result for QMEL reads no more than 0.25; that for ELCY, no more than 0.25; that for VSWD, no more than 0.25. As for MFYD, the enrichment ratio is no more than 0.25.

Consider FEDI, for which the enrichment ratio was no more than 0.25. MHTK: the enrichment ratio was no more than 0.25.

Turning to EYYA, the enrichment ratio is no more than 0.25. The result for EQKV reads no more than 0.25; that for RTAA, no more than 0.25; that for MKWH, no more than 0.25. Regarding MTAM, the enrichment ratio is 6.57. Turning to VRIF, the enrichment ratio was no more than 0.25.

Values taken from a collection of fitness landscapes (doi:10.1126/science.1257360).
